Test results taken from paper PMC12820563.
Some of the results follow. The list includes weakly bound sequences.

Target: T1, MBP-FoxP3dN (UniProt Q99JB6)
T1 sequence: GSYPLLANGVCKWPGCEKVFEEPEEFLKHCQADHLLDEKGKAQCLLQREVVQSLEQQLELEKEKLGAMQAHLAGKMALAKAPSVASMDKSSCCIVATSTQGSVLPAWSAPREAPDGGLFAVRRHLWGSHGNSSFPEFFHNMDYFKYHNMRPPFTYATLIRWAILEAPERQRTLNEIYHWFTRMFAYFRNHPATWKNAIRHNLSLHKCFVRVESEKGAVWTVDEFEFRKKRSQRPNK
Assay: PD-seq (MBP pull-down with sequencing)
Conditions: 20 mM Tris-HCl pH 7.5, 100 mM NaCl, 1.5 mM MgCl2, 0.4 uM protein, 0.1 uM dsDNA library, 30 min, room temperature, amylose pull-down; high values mean tight binding; double strand, one strand shown

| Sequence | binding signal (RPM ratio (pull-down/input)) |
| --- | --- |
| GATGATTGTTCTCCCAGCTGATGAATTTACTTGATCGAGTAAACAAATTTTCCTAATCTTTCTGTTCAAGCGCCATCTAC | 0.505 |
| GATGATTGTTCTCCCAGCTGATGAATTCCCATACTCGAGTAAACAAATTTTCCTAATCTTTCTGTTCAAGCGCCATCTAC | 0.332 |
| GATGATTGTTCTCCCAGCTGATGAATTCGCGCGTTCGAGTAAACAAATTTTCCTAATCTTTCTGTTCAAGCGCCATCTAC | 1.62 |
| GATGATTGTTCTCCCAGCTGATGAATTACACGCTTCGAGTAAACAAATTTTCCTAATCTTTCTGTTCAAGCGCCATCTAC | 0.71 |
| GATGATTGTTCTCCCAGCTGATGAATTCTACCTCTCGAGTAAACAAATTTTCCTAATCTTTCTGTTCAAGCGCCATCTAC | 0.381 |
| GATGATTGTTCTCCCAGCTGATGAATTCAGGGGTTCGAGTAAACAAATTTTCCTAATCTTTCTGTTCAAGCGCCATCTAC | 0.479 |
| GATGATTGTTCTCCCAGCTGATGAATTATACATCTCGAGTAAACAAATTTTCCTAATCTTTCTGTTCAAGCGCCATCTAC | 0.853 |
| GATGATTGTTCTCCCAGCTGATGAATTGTAGCTATCGAGTAAACAAATTTTCCTAATCTTTCTGTTCAAGCGCCATCTAC | 1.07 |
| GATGATTGTTCTCCCAGCTGATGAATTTTACGCGTCGAGTAAACAAATTTTCCTAATCTTTCTGTTCAAGCGCCATCTAC | 0.624 |
| GATGATTGTTCTCCCAGCTGATGAATTACGCGGTTCGAGTAAACAAATTTTCCTAATCTTTCTGTTCAAGCGCCATCTAC | 0.676 |
| GATGATTGTTCTCCCAGCTGATGAATTACAATTATCGAGTAAACAAATTTTCCTAATCTTTCTGTTCAAGCGCCATCTAC | 1.19 |
| GATGATTGTTCTCCCAGCTGATGAATTGAAAATGTCGAGTAAACAAATTTTCCTAATCTTTCTGTTCAAGCGCCATCTAC | 0.244 |
| GATGATTGTTCTCCCAGCTGATGAATTTCCCATCTCGAGTAAACAAATTTTCCTAATCTTTCTGTTCAAGCGCCATCTAC | 0.305 |
| GATGATTGTTCTCCCAGCTGATGAATTCCGTTCATCGAGTAAACAAATTTTCCTAATCTTTCTGTTCAAGCGCCATCTAC | 0.511 |
| GATGATTGTTCTCCCAGCTGATGAATTCCCACTTTCGAGTAAACAAATTTTCCTAATCTTTCTGTTCAAGCGCCATCTAC | 0.326 |
| GATGATTGTTCTCCCAGCTGATGAATTGACTGAGTCGAGTAAACAAATTTTCCTAATCTTTCTGTTCAAGCGCCATCTAC | 0.276 |

| Sequence | binding signal (RPM ratio (pull-down/input)) |
| --- | --- |
| GATGATTGTTCTCCCAGCTGATGAATTGTAAGTTTCGAGTAAACAAATTTTCCTAATCTTTCTGTTCAAGCGCCATCTAC | 0.584 |
| GATGATTGTTCTCCCAGCTGATGAATTCCGTGTCTCGAGTAAACAAATTTTCCTAATCTTTCTGTTCAAGCGCCATCTAC | 1.42 |
| GATGATTGTTCTCCCAGCTGATGAATTGGGGTCATCGAGTAAACAAATTTTCCTAATCTTTCTGTTCAAGCGCCATCTAC | 0.638 |
| GATGATTGTTCTCCCAGCTGATGAATTGCGTCTTTCGAGTAAACAAATTTTCCTAATCTTTCTGTTCAAGCGCCATCTAC | 1.6 |
| GATGATTGTTCTCCCAGCTGATGAATTCTTCGTATCGAGTAAACAAATTTTCCTAATCTTTCTGTTCAAGCGCCATCTAC | 0.341 |
| GATGATTGTTCTCCCAGCTGATGAATTCAAACGCTCGAGTAAACAAATTTTCCTAATCTTTCTGTTCAAGCGCCATCTAC | 0.369 |
| GATGATTGTTCTCCCAGCTGATGAATTGGGTGCTTCGAGTAAACAAATTTTCCTAATCTTTCTGTTCAAGCGCCATCTAC | 0.629 |
| GATGATTGTTCTCCCAGCTGATGAATTTAACTCATCGAGTAAACAAATTTTCCTAATCTTTCTGTTCAAGCGCCATCTAC | 0.444 |
| GATGATTGTTCTCCCAGCTGATGAATTAGTCCTATCGAGTAAACAAATTTTCCTAATCTTTCTGTTCAAGCGCCATCTAC | 0.552 |
| GATGATTGTTCTCCCAGCTGATGAATTAAGCGACTCGAGTAAACAAATTTTCCTAATCTTTCTGTTCAAGCGCCATCTAC | 2.91 |
| GATGATTGTTCTCCCAGCTGATGAATTACTTTTCTCGAGTAAACAAATTTTCCTAATCTTTCTGTTCAAGCGCCATCTAC | 0.544 |
| GATGATTGTTCTCCCAGCTGATGAATTTAAACGATCGAGTAAACAAATTTTCCTAATCTTTCTGTTCAAGCGCCATCTAC | 0.251 |
| GATGATTGTTCTCCCAGCTGATGAATTCGCGATGTCGAGTAAACAAATTTTCCTAATCTTTCTGTTCAAGCGCCATCTAC | 0.585 |
| GATGATTGTTCTCCCAGCTGATGAATTCTCCATCTCGAGTAAACAAATTTTCCTAATCTTTCTGTTCAAGCGCCATCTAC | 0.276 |
| GATGATTGTTCTCCCAGCTGATGAATTTACCAGCTCGAGTAAACAAATTTTCCTAATCTTTCTGTTCAAGCGCCATCTAC | 0.349 |
